Whole data set: some 13,000 compounds, median “IFI” near 4, cut for the highest 2% near 17. The list shows a part of the results.

A short description of this assay: GSK_TCMDC: Inhibition Frequency Index (IFI). The number of non-kinase HTS assays where a compound showed > 50 % inhibition, expressed as a percentage of the number of such assays in which the compound was tested (-0 is zero). Format: functional.
The molecule `CC[C@H](C)CNC(=O)c1cncc(-c2cccc(CNC3Cc4ccccc4C3)c2)c1` yielded an IFI of 7.58%.

`Cc1nc2ccc(Nc3nccc(-c4c(-c5cccc(NC(=O)c6c(F)cccc6F)c5)nn5ccccc45)n3)cc2nc1C`: the IFI was 1.43%.

As to `COc1ccc2[nH]ccc(=NN=Cc3ccccc3Cl)c2c1`, the IFI came to 5.15%.

As to `CCN(CC)CCCC(C)Nc1c2ccc(Cl)cc2nc2ccc(OC)cc12` (stereo not given), the IFI turned out to be 5.13%.

Molecule `O=C(/C=C/c1ccc(C(F)(F)F)cc1)NCCCCCN1CCC(c2c[nH]c3ccccc23)CC1` displayed an IFI of 7.86%.

As for `c1ccc2[nH]c(-c3ccc(-c4ccc(CN5CCN(c6ccncc6)CC5)cc4)s3)nc2c1`, the IFI came to 3.28%.

Turning to `Cc1cc(N2CCCCC2)nc2ccc(NC(=O)c3cncc(Br)c3)cc12`, the IFI was determined as 3%.

Molecule `O=C(CCN(Cc1ccco1)c1nc(-c2ccc(F)cc2)nc2ccccc12)NC1CC1` displayed an IFI of 2.38%.

Molecule `O=C(/C=C/c1ccc(Cl)c(Cl)c1)NCCCCCN1CCCN(C(=O)Nc2cccc(F)c2)CC1` yielded an IFI of 3.36%.

Turning to `CN(C)Cc1ccc(-c2cc3c(Nc4ccc(OCc5cccc(F)c5)c(Cl)c4)ncnc3s2)[nH]1`, the IFI is 6.47%.

The molecule `CC(C)c1cc(Oc2c(I)cc(CCCc3ncc[nH]3)cc2I)ccc1O` had an IFI of 16.4%.

Molecule `O=C(Nc1ccc(Cl)cc1)c1ccc(CN2CCCN(Cc3ccsc3)CC2)cc1` returned an IFI of 11.5%.

Consider `COc1cc(NC(=O)c2sc(-c3ccc(Cl)cc3)cc2Cl)ccc1OCCN1CCCC1`, for which the IFI amounted to 12%.

With `CN(C)C=Nc1ccc(OCCCCCCOc2ccc(N=CN(C)C)cc2)cc1`, the IFI stood at 0.74%.

The molecule `CCc1ccc(NC(=O)c2ccc(CN3CCCN(CCC(C)C)CC3)cc2)cc1` displayed an IFI of 6.4%.

In turn, `Cc1nnnn1-c1ccc(C(=O)N2CCC3(CC2)CN(Cc2ccc(Cl)c(Cl)c2)C(=O)O3)cc1` returned an IFI of 0.69%.

In turn, `CCOc1cc(Cc2cnc(N)nc2N)cc(OC)c1OC` had an IFI of 2.17%.

`N=C(N)c1ccc2[nH]c(SCc3ccccc3)nc2c1` came in with an IFI of 0.94%.

In the case of `CCCCC(O)c1cc(O)c2c(c1)OC(C)(C)CC2C1=CCN(Cc2ccc3ccccc3c2)CC1` (stereo not given), the IFI stood at 10.9%.

`CCc1c[nH]c2c(N(c3ccccc3)S(C)(=O)=O)cc(C(=O)N[C@@H](Cc3ccccc3)[C@H](O)CNCc3cccc(C(F)(F)F)c3)cc12`: the IFI was found to be 6.72%.

As to `OC(CNc1ccnc(Nc2ccccc2)n1)c1cccc(C(F)(F)F)c1` (stereo not given), the IFI came out at 12.2%.

Take `O=C(Nc1ccc(Cl)cc1)c1ccc(CN2CCCN(Cc3cccc(Cl)c3)CC2)cc1`: the IFI is 8.66%.

Take `Cn1c(N=C2NC3(c4ccccn4)NC(=Nc4nc5ccccc5n4C)NC3(c3ccccn3)N2)nc2ccccc21` (stereo not given): the IFI was determined as 3.6%.

In the case of `Cc1ccc2[nH]c(Nc3ccc(Nc4nc5cc(C)ccc5[nH]4)c(C)c3)nc2c1`, the IFI is 2.29%.

`CNC(=O)COc1ccc(Nc2nnc(-c3ccc(C)c(S(=O)(=O)NCC4CCCO4)c3)c3ccccc23)cc1` (stereo not given): the IFI came out at 1.34%.

Source of the values: ChEMBL document CHEMBL1157539, “Thousands of chemical starting points for antimalarial lead identification” (Nature, 2010).
